{"source": "PubChem BioAssay AID651820", "about": "(National Center for Advancing Translational Sciences (NCATS), 2012)", "note": "The campaign covered roughly 340,000 compounds. About 12,000 (3.5%) were called active. The inconclusive results got no clear call from the source; some entries with a clear call stand among them for comparison. Calls follow the shape of the dose curve; as a rule, active = well fitted inhibition curve with a large enough effect; inconclusive = small, poorly fitted or top-dose-only effect, or another doubt; inactive = no such curve, though single readings can be large or run the other way. Potencies of inconclusive entries are left out as doubtful fits. % is scaled to controls: 0 for no effect and ±100 for the full control effect; potency is read from the fitted curve at half-maximal effect; tags tell the direction and shape of the fitted curve."}
{"assay": "qHTS Assay for Inhibitors of Hepatitis C Virus (HCV)", "conditions": "Huh7.5.1 HCVcc-Cre (HCVcc is cell-culture hepatitis C virus) infection, luciferase reporter, 44 h; activity change, negative = inhibition: at 41.8 µM (top of the series)", "outline": "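Infectious HCV cell culture screen: compound-treated cells (1,000/well, pre-plated 4 h) are infected with HCVcc-Cre at roughly 0.5 moi and grown 44 h. Infection is quantified by luciferase signal after 15 min substrate incubation at room temperature.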"}
{"smiles": "COc1ccc(-n2c(=S)[nH]c3cc(C(=O)Nc4ccc(F)cc4)ccc3c2=O)c(OC)c1", "Potency": "inconclusive [inhibitor, single point]"}
{"smiles": "Oc1ccc2ccccc2c1CNc1ccc(Br)cc1", "Potency": "active: 2.51 µM"}
{"smiles": "CC(C)Nc1ccc(Nc2ccnc3cc4ccccc4cc23)cc1", "Potency": "inconclusive [inhibitor, full curve]"}
{"smiles": "Cc1cc([N+](=O)[O-])nn1CC(=O)Nc1sc2c(c1C(N)=O)CCCC2", "Potency": "inconclusive [inhibitor, single point]"}
{"smiles": "CCc1nnc(NC(=O)CSc2nnc(-c3ccccc3NC(=O)c3ccccc3)o2)s1", "Potency": "active: 11.2 µM"}
{"smiles": "CCN1CCC(O)(C#Cc2ccccc2)CC1", "activity change, negative = inhibition": "inactive: 7.06%"}
{"smiles": "COc1ccc(/C=C/C(=O)OCC(=O)Nc2ccc(N3CCOCC3)cc2)cc1OC", "activity change, negative = inhibition": "inactive: -16.1%"}
{"smiles": "CCN(CC)CCn1c2c(c(SCC(=O)Nc3cccc4ccccc34)nc1=O)CCCC2", "activity change, negative = inhibition": "inactive: -3.32%"}
{"smiles": "Cc1cccc(C)c1C(=NCCCN(C)C)c1ccccc1", "activity change, negative = inhibition": "inactive: 22.6%"}
{"smiles": "C=CC(=O)N1C/C(=C/c2ccc(Cl)cc2)C(=O)/C(=C\\c2ccc(Cl)cc2)C1", "Potency": "active: 4.47 µM"}
{"smiles": "COc1cc(/C=C/C(=O)OCC(=O)Nc2ccc(C)c(S(=O)(=O)N3CCCCC3)c2)ccc1O", "Potency": "inconclusive [inhibitor, single point]"}
{"smiles": "c1ccc2c(NCC3CCCO3)nc(N3CCCCC3)nc2c1", "note": "(stereo unspecified)", "Potency": "inconclusive [inhibitor, partial curve, poor fit]"}
{"smiles": "C[C@H]1CN=C(N(C)C)N1CC1CCC(C(C)(C)C)CC1", "note": "(stereo partly specified)", "Potency": "inconclusive [inhibitor, partial curve]"}
{"smiles": "O=C(Nc1nc(-c2ccc3c(c2)OCO3)cs1)C1CC1", "activity change, negative = inhibition": "inactive: -2.39%"}
{"smiles": "CC(C)c1ccc(NC(=O)c2ccc3snnc3c2)cc1", "Potency": "inconclusive [inhibitor, single point]"}
{"smiles": "CCn1nc(NC(=O)c2cccnc2)c2cc3cccc(C)c3nc21", "Potency": "inconclusive [inhibitor, full curve]"}
{"smiles": "O=C(N/N=C/c1cccc2ccccc12)c1cccc(F)c1", "Potency": "inconclusive [inhibitor, partial curve]"}
{"smiles": "CCCCn1c(O)c(C(CC)=NCc2ccc(F)cc2)c(=O)[nH]c1=O", "Potency": "inconclusive [inhibitor, partial curve, poor fit]"}
{"smiles": "N#CC1=C(N)S[C@@H](C(=O)c2ccc(F)cc2)[C@@H]1c1cccs1", "activity change, negative = inhibition": "inactive: -25%"}
{"smiles": "O=S(=O)(c1ccccc1)c1nc(-c2ccco2)oc1N1CCOCC1", "Potency": "inconclusive [inhibitor, single point]"}
{"smiles": "CCC(CO)NCc1ccc(Br)cc1", "note": "(stereo unspecified)", "activity change, negative = inhibition": "inactive: -3.72%"}
{"smiles": "Cc1cccc2c(C(=O)N3CCN(c4ccccn4)CC3)cc(-c3cccc(Br)c3)nc12", "Potency": "inconclusive [inhibitor, single point]"}
{"smiles": "Clc1ccccc1-c1nnc2sc(-c3cccs3)nn12", "activity change, negative = inhibition": "inactive: 18.7%"}
{"smiles": "C[C@H]1CN=C2N(CCNC(=O)CCC3CCCCC3)[C@H](Cc3ccc(O)cc3)CN21", "activity change, negative = inhibition": "inactive: 0.343%"}
{"smiles": "Cc1cccc(C)c1NC(=O)CCCSc1nnc(-c2ccc(F)cc2)n1-c1ccccc1", "Potency": "inconclusive [inhibitor, full curve]"}
{"smiles": "COC(=O)c1ccc(NC(=S)NCCc2cccc(C)c2)cc1", "Potency": "active: 22.4 µM"}
{"smiles": "COc1ccc(-c2c[n+]3c4n2CCCCC4=C(c2ccc(Br)cc2)C3)cc1", "Potency": "inconclusive [inhibitor, partial curve]"}
{"smiles": "COc1ccc(CCCC(=O)N/N=C/c2cccc(OC)c2O)cc1C", "Potency": "inconclusive [inhibitor, single point]"}
{"smiles": "CC(=O)N1CCSc2ccc(S(=O)(=O)NCCc3cccc(C)c3)cc21", "Potency": "inconclusive [inhibitor, partial curve]"}
{"smiles": "Cc1cc(C)c2[nH]c(C(=O)N3CCC(n4nccc4NC(=O)C4CC4)CC3)c(C)c2c1", "activity change, negative = inhibition": "inactive: 24.1%"}
{"smiles": "Cc1ccsc1/C=C1\\C(=O)NC(=S)N(C)C1=O", "activity change, negative = inhibition": "inactive: 8.21%"}
{"smiles": "COc1cccc(NC(=O)CS(=O)(=O)Cc2nc(-c3ccc(C)cc3)oc2C)c1", "Potency": "inconclusive [inhibitor, partial curve]"}
{"smiles": "c1ccc(CN(Cc2cccs2)C(c2cccs2)c2nnnn2C2CCCC2)cc1", "note": "(stereo unspecified)", "Potency": "inconclusive [inhibitor, single point]"}
{"smiles": "N#C/C(=C\\c1ccc(OCc2ccc(F)cc2)cc1)C(=O)Nc1cccc(C(=O)O)c1", "activity change, negative = inhibition": "inactive: 33.6%"}
{"smiles": "Cc1ccc(N(CC(=O)Nc2ccc3c(c2)OCCO3)S(C)(=O)=O)cc1", "activity change, negative = inhibition": "inactive: -1.91%"}
{"smiles": "COc1cc(CN2CCN(C(=O)CC(C)C)CC2)cc(OC)c1OC", "activity change, negative = inhibition": "inactive: 5.63%"}
{"smiles": "CCOC(=O)c1c(-c2ccccc2)csc1NC(=O)CCN1C(=O)c2ccccc2C1=O", "Potency": "inconclusive [inhibitor, single point]"}
{"smiles": "COc1ccc2c(c1)CCN=C2Cc1ccc(OC)c(OC)c1", "Potency": "inconclusive [inhibitor, single point]"}
{"smiles": "COc1cc(NC(=O)c2cc(C)on2)cc(C(=O)Nc2cccc(C(F)(F)F)c2)c1", "Potency": "inconclusive [inhibitor, full curve, poor fit]"}
{"smiles": "Cc1ccc(C)c(N2CCN(C(=O)CCNS(=O)(=O)c3ccc4c(c3)oc(=O)n4C)CC2)c1", "Potency": "inconclusive [inhibitor, partial curve]"}
{"smiles": "CC(C)(C)NC(=O)C(c1ccc(F)cc1)N(Cc1ccco1)C(=O)Cn1nnc(-c2cccs2)n1", "note": "(stereo unspecified)", "Potency": "inconclusive [inhibitor, partial curve, poor fit]"}
{"smiles": "NC(=O)c1ccc(SCC(=O)OCC(=O)NCc2cccs2)c([N+](=O)[O-])c1", "activity change, negative = inhibition": "inactive: 4.24%"}
{"smiles": "O=C(/C=C/c1cccc([N+](=O)[O-])c1)NCCN1C(=O)S/C(=C\\c2cccnc2)C1=O", "Potency": "inconclusive [inhibitor, single point]"}
{"smiles": "O=C(c1cc([N+](=O)[O-])cc([N+](=O)[O-])c1)N(Cc1nnc(-c2ccccc2Cl)o1)C1CC1", "Potency": "inconclusive [inhibitor, single point]"}
{"smiles": "CN1CCN(NC(=O)c2cn(-c3ccccc3)nc2-c2ccc(OC(F)F)cc2)CC1", "activity change, negative = inhibition": "inactive: -6.49%"}
{"smiles": "O=C(Nc1nnc(-c2ccco2)o1)c1ccc(Cl)cc1", "Potency": "inconclusive [inhibitor, full curve, poor fit]"}
{"smiles": "Nc1c(C(=O)NCc2ccco2)c2nc3ccccc3nc2n1CCN1CCCCC1", "Potency": "inconclusive [inhibitor, single point]"}
{"smiles": "CC1CN(S(=O)(=O)c2cc(C(=O)N3CCCCC3C)ccc2Cl)CC(C)O1", "note": "(stereo unspecified)", "Potency": "inconclusive [inhibitor, single point]"}
{"smiles": "COc1cc(C2CC(=O)N(CC(=O)NCc3ccco3)c3ccccc3S2)cc(OC)c1OC", "note": "(stereo unspecified)", "Potency": "inconclusive [inhibitor, partial curve]"}
{"smiles": "CSc1cccc(NC(=O)CN(c2cc(C)ccc2C)S(C)(=O)=O)c1", "activity change, negative = inhibition": "inactive: -6.35%"}
{"smiles": "NC(=O)c1cc(S(=O)(=O)N2CCN(c3ccc([N+](=O)[O-])cc3)CC2)cs1", "Potency": "inconclusive [inhibitor, single point]"}
{"smiles": "O=C(CN1C(=O)NC2(CCc3ccccc32)C1=O)c1ccccc1", "note": "(stereo unspecified)", "activity change, negative = inhibition": "inactive: 30.3%"}
{"smiles": "O=C1SCC(c2ccccc2)=NN1Cc1ccccc1", "activity change, negative = inhibition": "inactive: 8.4%"}
{"smiles": "COCCNc1nc(-c2cc(-c3ccccc3)on2)cc(C(C)C)n1", "Potency": "active: 10 µM"}
{"smiles": "CCCC(=O)Nc1ccc(C(=O)COC(=O)C2CC2)cc1", "activity change, negative = inhibition": "inactive: 1.5%"}
{"smiles": "CCCSc1nc(-n2ncc(C#N)c2N)c2c3c(sc2n1)CCC(C)C3", "note": "(stereo unspecified)", "Potency": "active: 14.1 µM"}
{"smiles": "CSc1nc(N)nc2c1ncn2CC(=O)NCc1ccc2[nH]ccc2c1", "Potency": "inconclusive [inhibitor, partial curve]"}
{"smiles": "COc1ccc(S(=O)(=O)N2CCC(C(=O)N3CCCCC3)CC2)cc1", "activity change, negative = inhibition": "inactive: -3.62%"}
{"smiles": "CSc1ccc(C(=O)C2CCCN(Cc3ccc(N4CCNC4=O)cc3)C2)cc1", "note": "(stereo unspecified)", "Potency": "inconclusive [inhibitor, single point]"}
{"smiles": "C=C(NC(=O)C(=C)NC(=O)c1csc(C2=NC3c4csc(n4)C4NC(=O)c5csc(n5)C(C(C)(O)C(C)O)NC(=O)C5CSC(=N5)/C(=C/C)NC(=O)C(C(C)O)NC(=O)c5csc(n5)C3(CC2)NC(=O)C(C)NC(=O)C(=C)NC(=O)C(=C)NC(=O)C(C(C)C)NC2C=Cc3c(C(C)O)cc(nc3C2O)C(=O)OC4C)n1)C(N)=O", "note": "(stereo unspecified)", "Potency": "active: 3.98 µM"}
{"smiles": "Cc1nnc(C)c2c(C)n(Cc3ccc4c(c3)OCO4)c(C)c12", "Potency": "active: 4.47 µM"}
{"smiles": "COc1ccc(-c2cc(C(=O)OCC(=O)N3CCCCC3)c3ccccc3n2)cc1OC", "Potency": "inconclusive [inhibitor, single point]"}
{"smiles": "CC(C)CCNC(=O)c1cc2c(=O)[nH]c3ccccc3c2s1", "activity change, negative = inhibition": "inactive: -3.73%"}
{"smiles": "Cc1cc2oc(=O)c(CC(=O)NCCCN(C)C)c(C)c2c2occ(C(C)(C)C)c12", "Potency": "active: 10 µM"}
{"smiles": "CCOC(=O)CNC(=O)c1ccc2[nH]c3c(c2c1)CCCC3", "Potency": "inconclusive [inhibitor, full curve]"}
{"smiles": "CCOc1ccc2nc(CN3CCN(Cc4ccccc4OCC)C(CCO)C3)ccc2c1", "note": "(stereo unspecified)", "activity change, negative = inhibition": "inactive: -21.5%"}
{"smiles": "CCC(C)c1ccccc1N1CC(C(=O)Nc2ccc(N3CCOCC3)cc2)CC1=O", "note": "(stereo unspecified)", "activity change, negative = inhibition": "inactive: 10.1%"}
{"smiles": "Cn1cnc([N+](=O)[O-])c1Nc1cccc(O)c1", "activity change, negative = inhibition": "inactive: 11%"}
{"smiles": "CC(=O)c1cccc(NC(=O)Cn2cnc(S(=O)(=O)N3CCCCC3)c2)c1", "activity change, negative = inhibition": "inactive: 4.69%"}
{"smiles": "CCC(CC)n1[nH]c(=O)c2c(C)cc(C)nc21", "Potency": "inconclusive [inhibitor, partial curve]"}
{"smiles": "Cc1ccc(C2=NOC(=O)/C2=C\\C=C\\c2ccccc2)cc1", "Potency": "inconclusive [inhibitor, single point]"}
